Among all 310,000 compounds or so, about 2,200 (0.71%) showed an effect of 50% or more. Effects have a minus sign here. Some of the results follow.
Biological target: human ether-à-go-go-related gene (hERG) potassium channel (human, UniProt Q12809)
Experiment: primary screen, population patch clamp on CHO cells stably expressing hERG

Sequence of human ether-à-go-go-related gene (hERG) potassium channel (Q12809 whole entry, looked up): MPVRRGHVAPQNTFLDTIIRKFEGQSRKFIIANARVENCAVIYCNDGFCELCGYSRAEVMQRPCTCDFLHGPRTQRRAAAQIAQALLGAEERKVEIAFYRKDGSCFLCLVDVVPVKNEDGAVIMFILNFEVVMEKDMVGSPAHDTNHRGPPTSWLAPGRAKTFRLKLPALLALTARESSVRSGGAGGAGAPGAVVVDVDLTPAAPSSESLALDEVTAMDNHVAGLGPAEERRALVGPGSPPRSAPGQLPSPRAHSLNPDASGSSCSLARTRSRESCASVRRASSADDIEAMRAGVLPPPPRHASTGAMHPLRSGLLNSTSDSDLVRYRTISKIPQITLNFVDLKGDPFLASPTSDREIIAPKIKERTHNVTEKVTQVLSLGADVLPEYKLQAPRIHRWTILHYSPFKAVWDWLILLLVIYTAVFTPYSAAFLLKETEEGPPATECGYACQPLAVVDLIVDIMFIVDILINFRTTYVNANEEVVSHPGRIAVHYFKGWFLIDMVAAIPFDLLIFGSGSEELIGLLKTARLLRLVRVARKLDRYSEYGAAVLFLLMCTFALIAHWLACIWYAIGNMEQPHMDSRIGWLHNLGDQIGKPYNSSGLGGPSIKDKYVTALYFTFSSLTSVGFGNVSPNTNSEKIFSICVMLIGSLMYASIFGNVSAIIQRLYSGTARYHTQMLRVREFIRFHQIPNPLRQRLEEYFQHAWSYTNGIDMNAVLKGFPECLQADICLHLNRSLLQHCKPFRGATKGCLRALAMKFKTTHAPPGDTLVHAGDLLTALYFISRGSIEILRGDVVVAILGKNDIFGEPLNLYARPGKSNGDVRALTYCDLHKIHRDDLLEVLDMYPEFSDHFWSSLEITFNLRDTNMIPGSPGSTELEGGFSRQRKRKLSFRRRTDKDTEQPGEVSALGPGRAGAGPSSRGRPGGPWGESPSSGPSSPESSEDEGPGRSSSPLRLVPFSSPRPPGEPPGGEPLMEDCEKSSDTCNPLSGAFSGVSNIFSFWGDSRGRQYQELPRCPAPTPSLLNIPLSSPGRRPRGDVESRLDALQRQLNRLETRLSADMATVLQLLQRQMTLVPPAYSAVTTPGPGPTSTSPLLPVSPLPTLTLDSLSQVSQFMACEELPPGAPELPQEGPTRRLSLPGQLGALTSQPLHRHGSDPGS

Structure (SMILES)	hERG current change (%, negative = inhibition) at 1uM [%]
Cc1c(C(c2ccc(N(C)C)cc2)c2c(C)n(C)n(-c3ccccc3)c2=O)c(=O)n(-c2ccccc2)n1C	15.4
COc1ccc(N2CCN(C(=O)COC(=O)COc3cc(C)cc(C)c3)CC2)cc1	-2.01
Clc1ccc(C2[C@H]3CN(Cc4cccnc4)[C@H](c4ccccc4)C34CC2(c2cccnc2)C4)cn1 (stereo partly shown)	3.18
O=C(Nc1ccc(Cl)cc1)N1CCN(c2ccccc2)CC1	9.17
COC(=O)C(Cc1cnc(Cl)s1)(C(=O)OC)c1ccccc1[N+](=O)[O-]	16.7
Cc1cnc(NC(=O)c2cccc(S(=O)(=O)N3CCOCC3)c2)s1	8.14
O=C(NC1CCCCC1)C(c1ccncc1)N(C(=O)Cc1cccs1)c1ccccc1 (stereo not shown)	15.5
O=C(NC(=S)Nc1nc2ccccc2s1)c1ccco1	14.9
O=C(O)C1CCN(c2ccc([N+](=O)[O-])cc2[N+](=O)[O-])CC1	6.97
O=C1c2cccc3cccc(c23)C(=O)N1CCCCCc1n[nH]c(=S)o1	-6.54
O=S(=O)(c1ccc2nc(N3CCN(c4ccc(F)cc4)CC3)ccc2c1)N1CCCCC1	9.77
CC(C)OCCCNC(=O)C1CC(=O)N(CCc2ccc(F)cc2)C1 (stereo not shown)	10.6
S=C(NC1CC1)N1CCCc2ccccc21	3.32
O=C(CSc1nnc(CNC(=O)c2ccc(F)cc2)o1)NCCc1ccccc1	15.2
Cc1cccc(-c2noc(CNC(=O)c3ccc4c(c3)OCO4)n2)c1	2.34
O=C(C1CCN(Cc2cn[nH]c2-c2ccc(F)cc2F)CC1)N1CCOCC1	12.1
CC(Oc1ccc(Br)cc1Br)C(=O)Nc1cccnc1 (stereo not shown)	13.8
CCCSCCCNC(=O)c1ccc(NC(=O)C2=CSCCO2)cc1	6.09
Cc1cc(Cl)c(S(=O)(=O)Nc2ccccn2)cc1OCC(N)=O	-30.4
CC(C)CC(=O)Nc1cc([N+](=O)[O-])ccc1Cl	1.28
Cc1ccc(S(=O)(=O)/N=C(\c2ccccc2)N(C)S(=O)(=O)c2ccccc2)cc1	5.65
COc1cc(C=O)c(Br)cc1OCc1ccc(C)cc1	8.93
O=C(NCc1ccccc1)c1cccc(COc2ccc3c(c2)CCC3)c1	-1.71
COCCCN(C(=O)CSCC(=O)Nc1cccc(C)c1)c1c(N)n(Cc2ccccc2)c(=O)[nH]c1=O	18.4
Cc1cccc(NC(=S)NC2CC3CCCC(C2)N3Cc2ccco2)c1 (stereo not shown)	4.44
Fc1cc(F)c2nc(N3CCCC3)sc2c1	16
COCCN(C(=O)CSCC(=O)Nc1cccc(C)c1)c1c(N)n(Cc2ccccc2)c(=O)[nH]c1=O	8.65
COc1cc(/C=C(/C#N)c2nc3ccccc3[nH]2)ccc1OC(=O)c1ccco1	7.41

Structure (SMILES)	hERG current change (%, negative = inhibition) at 1uM [%]
O=C(COc1ccc(-c2nnco2)cc1)NCc1ccccc1Cl	1.47
CC(C)C[C@H](NC(=O)C1CC(=O)N(c2ccc3c(c2)OCO3)C1)C(=O)NCc1ccco1 (stereo partly shown)	5.04
O=C(NCc1ccccn1)c1ccc(COc2ccc(Cl)cc2)o1	2.53
CC(=O)OCc1cc2cc(C)ccc2[nH]c1=O	12.9
Cc1cccc(C)c1OCC(=O)NNC(=S)NC(=O)C1CC1	7.77
Cc1cc(Cl)ccc1OC(C)C(=O)N1CCCN(C(=O)C(C)Oc2ccc(Cl)cc2C)CC1 (stereo not shown)	12.1
Cc1nc(C)c(Oc2ccc(Cl)cc2Cl)c(=O)[nH]1	10.7
O=C(C1CCCCC1)N1CCN(S(=O)(=O)c2ccc(Br)cc2)CC1	7.29
Cc1cc(CNC(=O)C2(C(F)(F)F)C/C(=C\CCO)CCCO2)nn1C (stereo not shown)	10.6
CCCNc1nc(C)cc(-c2cc(-c3ccccc3)on2)n1	13
COc1ccc(CC2(CO)CCN(Cc3ccc(NC(C)=O)cc3)CC2)cc1	-6.86
COc1ccc(C(=O)N2CCCCC2)cc1S(=O)(=O)Nc1ccccc1	6.97
Cc1ccc(C(=O)NNC(=O)CCC(=O)NCc2ccccc2)cc1Br	10.3
CC(=O)N(CN1C(=O)c2ccccc2C1=O)c1ccc2c(c1)oc1ccccc12	9.19
CSCC[C@H](NC(=O)Nc1ccccc1C)C(=O)O	5.67
COc1cc(SC#N)ccc1N=Cc1c(C)[nH]n(-c2ccc(Cl)cc2)c1=O	-1.2
CCCCn1c(=O)c(C(=O)NCc2ccccc2OC)c(O)c2ccccc21	4.46
O=P(OC1CCCCC1)(OC1CCCCC1)C(Nc1ccccc1)c1cccnc1 (stereo not shown)	5.86
O=C(CCCOc1ccccc1)NCc1ccco1	-14.4
CCOC(=O)C1(CCOC)CCN(C2C3CC4CC(C3)CC2C4)CC1 (stereo not shown)	8.54
CCCn1nnnc1NCc1ccc(CC)cc1	13.7
CCOc1ccc(C2=Nc3ccc(Br)cc3C(c3ccc(N4CCOCC4)cc3)=NN2)cc1	16.2
CCOc1ccc(Nc2cc(C)c3ccccc3n2)cc1	13.2
CC(=O)c1nn(-c2cccc(Br)c2)cc1C(=O)c1ccc2ccccc2c1	9.62
COc1cc2c(cc1OC)C(C(=O)NC1CC1)C1c3ccccc3CCN1C2=O (stereo not shown)	3.84
O=C(CCc1nnc(CCCCc2ccccc2)o1)NCCn1cccn1	4.99
Cc1oc2cc3oc(=O)c(CCC(=O)N[C@H](C(=O)O)C(C)C)c(C)c3cc2c1C	11.7

— publication PMC4336329 (PLoS ONE, 2015)
